Source: the supplement of paper PMC4604168 (melanoma cell lines)
The other results are listed elsewhere or left out. Repeats are few or missing, and single values can be far off.

Experiments:
Experiment in all cases: cell count relative to DMSO control; melanoma cells; higher = more viable cells
Details in all cases: library dose: low library concentration; 72 h
[1] = system: WM115
[2] = system: WM1716
[3] = system: WM1745
[4] = system: WM3526
[5] = system: WM3619
[6] = system: WM451Lu
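Note: cell number obtained by counting DAPI-stained nuclei in high-throughput microscope images with image analysis software, screen run in 1,536-well plates.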

Row | Structure (SMILES) | cell count [1] [%] | cell count [2] [%] | cell count [3] [%] | cell count [4] [%] | cell count [5] [%] | cell count [6] [%]
1 | CN(NC(=O)CC(=O)NN(C)C(=S)c1ccccc1)C(=S)c1ccccc1 + O=C(O)C(=O)Nc1sc2c(c1C(=O)O)CCNC2 [TCS401] (first compound 0.006 µM, partner dose 1.66667 µM) | 97.6 | 80.8 | 63 | 117 | 59.4 | 111
2 | CCc1ccc(CCOc2ccc(CC3SC(=O)NC3=O)cc2)nc1 (configuration not stated) [pioglitazone] + COC(=O)c1sccc1S(=O)(=O)Nc1ccc(Nc2ccccc2)cc1OC [GSK0660] (first compound 2 µM, partner dose 1 µM) | 101 | 96.6 | 105 | 103 | 98.6 | 90.5
3 | CC(C)(C)c1cnc(CSc2cnc(NC(=O)C3CCNCC3)s2)o1 + COc1ccc(-c2ccc3c(N4CCOCC4)nc(N4C[C@@H](C)O[C@@H](C)C4)nc3n2)cc1CO [KU0063794] (first compound 0.01 µM, partner dose 0.02 µM) | 101 | 85 | 89.4 | 97.7 | 68.5 | 85.5
4 | CCCCCCCCc1ccc(CCC(N)(CO)CO)cc1 [fingolimod] + CC(C)(C)c1cnc(CSc2cnc(NC(=O)C3CCNCC3)s2)o1 [SNS-032] (first compound 2 µM, partner dose 0.01 µM) | 92.3 | 82.2 | 88.9 | 99.5 | 101 | 103
5 | NC(=O)c1ccc(N(C(N)=O)c2c(F)cccc2F)nc1-c1ccc(F)cc1F + Cn1nnc2c(C(N)=O)ncn2c1=O [temozolomide] (first compound 0.4 µM, partner dose 2 µM) | 92.7 | 90.2 | 102 | 87.7 | 122 | 88.3
6 | CCCCCCCCc1ccc(CCC(N)(CO)CO)cc1 [fingolimod] + Cn1cc(/C=C2\C(=O)Nc3cccnc32)c2ccccc21 [GW441756] (first compound 2 µM, partner dose 0.4 µM) | 91.6 | 96.4 | 72.8 | 88.3 | 98.8 | 111
7 | CCCCCCCCc1ccc(CCC(N)(CO)CO)cc1 [fingolimod] + O=C(CCCCCCC(=O)Nc1ccccc1)NO [vorinostat] (first compound 2 µM, partner dose 0.08 µM) | 88.6 | 86.8 | 89.7 | 49.9 | 69.8 | 98.9
8 | COc1cc2c(Oc3ccc4[nH]c(C)cc4c3F)ncnc2cc1OCCCN1CCCC1 [cediranib] + O=C(Nc1ccccc1)c1cc([N+](=O)[O-])ccc1Cl [GW9662] (first compound 0.4 µM, partner dose 2 µM) | 113 | 96.9 | 89.9 | 95.3 | 143 | 110
9 | NC(=O)c1ccc(N(C(N)=O)c2c(F)cccc2F)nc1-c1ccc(F)cc1F + CO[C@H]1C[C@@H]2CC[C@@H](C)[C@@](O)(O2)C(=O)C(=O)N2CCCC[C@H]2C(=O)O[C@H]([C@H](C)C[C@@H]2CC[C@@H](OCCO)[C@H](OC)C2)CC(=O)[C@H](C)/C=C(\C)[C@@H](O)[C@@H](OC)C(=O)[C@H](C)C[C@H](C)/C=C/C=C/C=C/1C [everolimus] (first compound 0.4 µM, partner dose 0.02 µM) | 78.2 | 90.7 | 81.4 | 76.3 | 75 | 88.6
10 | NC(=O)c1ccc(N(C(N)=O)c2c(F)cccc2F)nc1-c1ccc(F)cc1F + Cn1c(Nc2ccc(C(F)(F)F)cc2)nc2cc(Oc3ccnc(-c4ncc(C(F)(F)F)[nH]4)c3)ccc21 [CHIR265] (first compound 0.4 µM, partner dose 0.08 µM) | 65.5 | 112 | 81.9 | 74.6 | 92.5 | 162
11 | NC(=O)c1ccc(N(C(N)=O)c2c(F)cccc2F)nc1-c1ccc(F)cc1F + Cc1cc([N+](=O)[O-])ccc1NS(=O)(=O)c1cc(Cl)ccc1Cl [FH535] (first compound 0.4 µM, partner dose 1 µM) | 94.4 | 81.3 | 89.6 | 81.8 | 123 | 97.5
12 | CCCCCCCCc1ccc(CCC(N)(CO)CO)cc1 [fingolimod] + Cc1cc(Nc2cc(N3CCN(C)CC3)nc(/C=C/c3ccccc3)n2)n[nH]1 [ENMD2076] (first compound 2 µM, partner dose 0.04 µM) | 92.1 | 100 | 73.8 | 111 | 83.2 | 104
13 | NC(=O)c1ccc(N(C(N)=O)c2c(F)cccc2F)nc1-c1ccc(F)cc1F + COc1ccc(Cl)c(Nc2nc3ccccc3nc2NS(=O)(=O)c2cccc(NC(=O)C(C)(C)N)c2)c1 [XL147] (first compound 0.4 µM, partner dose 0.8 µM) | 100 | 111 | 96.5 | 107 | 95.2 | 89.9
14 | NC(=O)c1ccc(N(C(N)=O)c2c(F)cccc2F)nc1-c1ccc(F)cc1F + COc1cc2c(Oc3ccc4[nH]c(C)cc4c3F)ncnc2cc1OCCCN1CCCC1 [cediranib] (first compound 0.4 µM, partner dose 0.4 µM) | 108 | 109 | 81.5 | 92.2 | 98.3 | 106
15 | CN(NC(=O)CC(=O)NN(C)C(=S)c1ccccc1)C(=S)c1ccccc1 + c1cc(-c2cnn3cc(-c4ccc(OCCN5CCCCC5)cc4)cnc23)ccn1 [Dorsomorphin] (first compound 0.006 µM, partner dose 0.4 µM) | 74.3 | 70.9 | 51.4 | 93 | 53.4 | 112
16 | COc1cc2c(Oc3ccc4[nH]c(C)cc4c3F)ncnc2cc1OCCCN1CCCC1 [cediranib] + COC(=O)c1sccc1S(=O)(=O)Nc1ccc(Nc2ccccc2)cc1OC [GSK0660] (first compound 0.4 µM, partner dose 1 µM) | 106 | 98 | 85.5 | 88.4 | 108 | 107
17 | NC(=O)c1ccc(N(C(N)=O)c2c(F)cccc2F)nc1-c1ccc(F)cc1F + C[C@]1(c2nc3c(C(N)=O)cccc3[nH]2)CCCN1 [Veliparib] (first compound 0.4 µM, partner dose 1.4 µM) | 80.7 | 95.5 | 90.7 | 88.1 | 97.4 | 110
18 | CC(C)(C)c1cnc(CSc2cnc(NC(=O)C3CCNCC3)s2)o1 + COc1ccc(COc2ccc(Cc3cnc(N)nc3N)cc2OC)cc1 [GW2580] (first compound 0.01 µM, partner dose 1 µM) | 103 | 85 | 84.2 | 122 | 100 | 102
19 | NC(=O)c1ccc(N(C(N)=O)c2c(F)cccc2F)nc1-c1ccc(F)cc1F + CCN(CC)CCNC(=O)c1c(C)[nH]c(/C=C2\C(=O)Nc3ccc(F)cc32)c1C [sunitinib] (first compound 0.4 µM, partner dose 0.4 µM) | 108 | 120 | 80 | 94.8 | 97 | 113
20 | COc1cc2c(Oc3ccc4[nH]c(C)cc4c3F)ncnc2cc1OCCCN1CCCC1 [cediranib] + CCc1ccc(CCOc2ccc(CC3SC(=O)NC3=O)cc2)nc1 [pioglitazone] (first compound 0.4 µM, partner dose 2 µM) | 102 | 106 | 81.2 | 110 | 82.8 | 109
21 | Cc1ccc(NC(=O)c2cccc(N(C)C)c2)cc1NC(=O)c1ccc(O)cc1 + O=C(O)c1ccc(-c2c[nH]c3ncc(-c4ccccc4)cc23)cc1C1CCCC1 [GSK650394] (first compound 2 µM, partner dose 0.16 µM) | 111 | 93.8 | 96.5 | 94.2 | 86.7 | 93.4
22 | CCc1ccc(CCOc2ccc(CC3SC(=O)NC3=O)cc2)nc1 (configuration not stated) [pioglitazone] + COc1ccc(-c2ccc3c(N4CCOCC4)nc(N4C[C@@H](C)O[C@@H](C)C4)nc3n2)cc1CO [KU0063794] (first compound 2 µM, partner dose 0.02 µM) | 107 | 110 | 91.3 | 116 | 146 | 105
23 | CCCCCCCCc1ccc(CCC(N)(CO)CO)cc1 [fingolimod] + COc1ccc(-c2ccc3c(N4CCOCC4)nc(N4C[C@@H](C)O[C@@H](C)C4)nc3n2)cc1CO [KU0063794] (first compound 2 µM, partner dose 0.02 µM) | 95.4 | 71.4 | 55.1 | 87.2 | 69.1 | 99.8
24 | CC(C)(C)c1cnc(CSc2cnc(NC(=O)C3CCNCC3)s2)o1 + N#Cc1c(O)c2c(-c3ccc(-c4ccccc4O)cc3)csc2[nH]c1=O [A769662] (first compound 0.01 µM, partner dose 2 µM) | 109 | 96.5 | 103 | 112 | 114 | 108
25 | Cc1ccc(NC(=O)c2cccc(N(C)C)c2)cc1NC(=O)c1ccc(O)cc1 + O=C1NC(=O)/C(=C/c2ccc(-c3ccc(F)cc3O)o2)S1 [AS252424] (first compound 2 µM, partner dose 1 µM) | 96.1 | 110 | 99.1 | 85.8 | 132 | 96.4
26 | NC(=O)c1ccc(N(C(N)=O)c2c(F)cccc2F)nc1-c1ccc(F)cc1F + O=C(O)c1ccc2c(c1)nc(Nc1cccc(Cl)c1)c1ccncc12 [CX4945] (first compound 0.4 µM, partner dose 0.4 µM) | 103 | 110 | 89.7 | 92.5 | 78.4 | 110
27 | NC(=O)c1ccc(N(C(N)=O)c2c(F)cccc2F)nc1-c1ccc(F)cc1F + COc1ccc(-c2ccc3c(N4CCOCC4)nc(N4C[C@@H](C)O[C@@H](C)C4)nc3n2)cc1CO [KU0063794] (first compound 0.4 µM, partner dose 0.02 µM) | 100 | 102 | 88.8 | 138 | 94.6 | 103
